# Data from PubChem BioAssay AID360 (National Center for Advancing Translational Sciences (NCATS), 2006).
# About 550 (1.1%) of roughly 48,000 compounds were called active. Not shown: some 4% with an inconclusive outcome. No stated cut-off is given here; in the data, active means potency below about 15 µM; inconclusive means mostly about 16 µM to 33 µM; inactive means weaker than that. Some of the results follow.
# Target: Lysosomal acid glucosylceramidase (Homo sapiens) (UniProt P04062)
# Test: Glucocerebrosidase;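 further: the screen sought inhibitors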
# Conditions: purified enzyme, resorufin glucoside fluorescence (screen aimed at inhibitors), 20 min
# Outline: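 Compounds titrated against 0.2 nM normal enzyme, 30 uM resorufin beta-D-glucopyranoside substrate, citrate/phosphate buffer with taurocholate and tween-20, pH 5.9. Reaction ran 20 min at room temperature; fluorescence (Ex 548/Em 600) gave AC50.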
# Potency means the concentration at half of the fitted maximal effect.
# Sequence of UniProt P04062 (P04062 whole entry, looked up): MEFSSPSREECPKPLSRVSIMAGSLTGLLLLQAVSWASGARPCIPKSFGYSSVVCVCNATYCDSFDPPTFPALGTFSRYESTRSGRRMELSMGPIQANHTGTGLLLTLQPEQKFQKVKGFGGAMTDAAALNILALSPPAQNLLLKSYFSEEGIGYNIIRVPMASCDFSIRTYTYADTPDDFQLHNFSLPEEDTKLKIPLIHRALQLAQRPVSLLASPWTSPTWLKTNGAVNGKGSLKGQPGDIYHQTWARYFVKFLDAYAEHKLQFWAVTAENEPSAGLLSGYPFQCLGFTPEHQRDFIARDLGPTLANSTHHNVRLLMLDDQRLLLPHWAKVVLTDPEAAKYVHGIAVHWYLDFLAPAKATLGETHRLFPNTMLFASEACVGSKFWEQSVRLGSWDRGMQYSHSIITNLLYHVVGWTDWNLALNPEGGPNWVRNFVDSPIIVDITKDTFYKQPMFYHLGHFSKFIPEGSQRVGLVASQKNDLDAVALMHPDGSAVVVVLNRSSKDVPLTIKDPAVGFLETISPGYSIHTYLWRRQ
row,SMILES,Potency
1,O=P(O)(O)C12CC3CC(CC(C3)C1)C2,inactive: > 76.9 µM
2,C/C(CCc1c[nH]c2ccccc12)=N\O,inactive: > 76.9 µM
3,O=P1(NCc2ccco2)COc2ccccc2OC1,inactive: > 76.9 µM
4,Cc1cc(NC(=O)COC(=O)c2c(C)nn(Cc3ccccc3Cl)c2Cl)no1,inactive: > 76.9 µM
5,CCN(CC)CCN=Cc1c(O)n(C2CCCCCC2)c(=O)[nH]c1=O,inactive: > 76.9 µM
6,CCCCCn1c(=O)c(C(=O)NCc2ccncc2)c(O)c2ccccc21,inactive: > 76.9 µM
7,CC1=C(C(=O)N2CCC3(CC2)OCCO3)C2(CCC(C)CC2)OC1=O (stereo unspecified),inactive: > 76.9 µM
8,O=C(Nc1cccc(OC(=O)N2CCCCC2)c1)N1CCCCC1,inactive: > 76.9 µM
9,O=C(c1ccc2c(c1)ncn2C1CCCCCC1)N1CCC2(CC1)OCCO2,inactive: > 76.9 µM
10,Cc1ccc(-n2c(O)c(C=NC3CCCC3)c(=O)[nH]c2=O)c(C)c1,inactive: > 76.9 µM
11,O=C1NC(=O)C2(Cc3ccccc3N3CCCC32)C(=O)N1Cc1ccccc1 (stereo unspecified),inactive: > 76.9 µM
12,CC(=NCCCN1CCOCC1)c1c(O)n(Cc2ccccc2)c(=O)[nH]c1=O,inactive: > 76.9 µM
13,Cn1c(=O)cc(SCC(=O)N2CCC3(CC2)OCCO3)c2ccc(Cl)cc21,inactive: > 76.9 µM
14,COc1cc(CN2CCN(c3cc(C)ccc3C)CC2)ccc1O,inactive: > 76.9 µM
15,Cc1cccc(-n2c(O)c(C=NCc3cccnc3)c(=O)[nH]c2=O)c1C,inactive: > 76.9 µM
16,O=C1NC(=O)N(C2CCCCC2)C(=O)C1C1c2ccccc2C(=O)N1Cc1ccccc1 (stereo unspecified),inactive: > 76.9 µM
17,O=C(C1CC(=O)N(c2ccc(F)c(Cl)c2)C1)N1CCC2(CC1)OCCO2 (stereo unspecified),inactive: > 76.9 µM
18,O=P1(NC2CCCC2)COc2ccccc2OC1,inactive: > 76.9 µM
19,COc1cccc(-n2nc(C(=O)N3CCC4(CC3)OCCO4)c3ccccc3c2=O)c1,inactive: > 76.9 µM
20,O=P(/C(=N/O)N1CCCCC1)(N1CCOCC1)N1CCOCC1,inactive: > 76.9 µM
21,Cc1cc(N2C(=O)C3CCCN3C2c2ccc(Cl)c(Cl)c2)no1 (stereo unspecified),inactive: > 76.9 µM
22,O=C1CC(=O)N(c2ccc3c(c2)OCO3)C(=O)N1,inactive: > 76.9 µM
23,O=C(COc1ccc(S(=O)(=O)N2CCCCC2)cc1)N1CCN(Cc2ccccc2)CC1,inactive: > 76.9 µM
24,O=c1[nH]c(=O)n(-c2cccc(Cl)c2)c(O)c1/C=N/c1ccccn1,inactive: > 76.9 µM
25,NC(=O)CN1C2CCC1CC(NC(=O)C1CC1)C2 (stereo unspecified),inactive: > 76.9 µM
26,COc1ccccc1N(CC(=O)NC1CCCCC1)C(=O)c1cnn(C(C)C)c1,inactive: > 76.9 µM

row,SMILES,Potency
1,O=C(Nc1cccnc1)c1c(O)c2c(n(Cc3ccccc3)c1=O)CCCC2,inactive: > 76.9 µM
2,COc1ccc(C(CC(=O)N2CCC3(CC2)OCCO3)NS(=O)(=O)c2ccc(OC)cc2)cc1 (stereo unspecified),inactive: > 76.9 µM
3,C=CCn1c(O)c(C(C)=NC2CC2)c(=O)[nH]c1=O,inactive: > 76.9 µM
4,CSCCC(N=Cc1c(O)n(-c2ccc(F)cc2)c(=O)[nH]c1=O)C(=O)O (stereo unspecified),inactive: > 76.9 µM
5,O=C(c1cc(-c2ccccc2)nc2ccccc12)N1CCC2(CC1)OCCO2,inactive: > 76.9 µM
6,CCC(=NCc1cccnc1)c1c(O)n(C2CCCCC2)c(=O)[nH]c1=O,inactive: > 76.9 µM
7,C[N+]12CCC(CC1)C(C#N)(N1CCOCC1)C2 (stereo unspecified),inactive: > 76.9 µM
8,O=C(c1cccc(N2CCCC2=O)c1)N1CCC2(CC1)OCCO2,inactive: > 76.9 µM
9,NC(=O)C1(N2CCCCC2)CCN(Cc2ccccc2)CC1,inactive: > 76.9 µM
10,Cc1nc2cc(C(F)(F)F)ccc2n1C1CCN(Cc2nnnn2Cc2ccc3c(c2)OCO3)CC1,inactive: > 76.9 µM
11,CC(c1ccc(F)cc1)n1cc(C(=O)NCc2ccc3c(c2)OCO3)nn1 (stereo unspecified),inactive: > 76.9 µM
12,C[C@H]1CCC[C@@H](O)CCC/C=C/c2cc(O)cc(O)c2C(=O)O1,inactive: > 76.9 µM
13,COCCOC(=O)C1=C(N)Oc2c(c(=O)oc3ccccc23)C1c1ccncc1 (stereo unspecified),inactive: > 76.9 µM
14,COc1ccc(NC(=O)CN2C3CCC2CC(O)(c2cccnc2)C3)cc1OC (stereo unspecified),inactive: > 76.9 µM
15,O=C(C(Cc1ccccc1)NS(=O)(=O)c1cccc2nsnc12)N1CCC2(CC1)OCCO2 (stereo unspecified),inactive: > 76.9 µM
16,O=C1C2CCCN2C(c2ccc(Cl)c(Cl)c2)N1c1ccccn1 (stereo unspecified),inactive: > 76.9 µM
17,CC(=O)c1cccc(OCC(O)CN2CC=C(c3ccccc3)CC2)c1 (stereo unspecified),inactive: > 76.9 µM
18,Cc1ccc(CS(=O)(=O)CCC(=O)N2CCC3(CC2)OCCO3)cc1,inactive: > 76.9 µM
19,CCOC(=O)c1cncn1C(C)c1ccccc1 (stereo unspecified),inactive: > 76.9 µM
20,COc1ccccc1CC1/C(=N/O)C2CCN1CC2 (stereo unspecified),inactive: > 76.9 µM
21,CC1CC2(O)c3nonc3CCC2N1O (stereo unspecified),inactive: > 76.9 µM
22,Cc1cc(C)c(C(=O)CN2CCOCC2)c(C)c1,inactive: > 76.9 µM
23,CCCCn1c(O)c(C(C)=Nc2cccc(C(=O)O)c2)c(=O)[nH]c1=O,inactive: > 76.9 µM
24,COc1ccc(-n2c(O)c(C(C)=NCc3ccco3)c(=O)[nH]c2=O)cc1,inactive: > 76.9 µM
25,CCOc1ccccc1N=C1SCCCN1C,inactive: > 76.9 µM
